Reference: PubChem BioAssay (Tox21)
Several values for one entry are separate records, joined by “and”; a condition that tells them apart may be missing. Equal values may be shown once. Inconclusive results, whose numbers are uncertain, are shown with a selection of clear calls. A potency beside an inconclusive call is a rough fit, not a confirmed value. The source holds several records for some structures; these can differ, active in one and inactive in another. Activity calls are given as the source filed them. Unless noted, the call rests on the fitted dose curve; in most records, active means well fitted cell-killing curve with a large enough effect in the repeat runs; inconclusive means weak or mixed curves, or effect the other way; inactive means no such curve, though single readings can be large or run the other way.

Molecular target: Glucocorticoid receptor (Homo sapiens) (UniProt P04150)
Sequence of UniProt P04150 (P04150 whole entry, looked up): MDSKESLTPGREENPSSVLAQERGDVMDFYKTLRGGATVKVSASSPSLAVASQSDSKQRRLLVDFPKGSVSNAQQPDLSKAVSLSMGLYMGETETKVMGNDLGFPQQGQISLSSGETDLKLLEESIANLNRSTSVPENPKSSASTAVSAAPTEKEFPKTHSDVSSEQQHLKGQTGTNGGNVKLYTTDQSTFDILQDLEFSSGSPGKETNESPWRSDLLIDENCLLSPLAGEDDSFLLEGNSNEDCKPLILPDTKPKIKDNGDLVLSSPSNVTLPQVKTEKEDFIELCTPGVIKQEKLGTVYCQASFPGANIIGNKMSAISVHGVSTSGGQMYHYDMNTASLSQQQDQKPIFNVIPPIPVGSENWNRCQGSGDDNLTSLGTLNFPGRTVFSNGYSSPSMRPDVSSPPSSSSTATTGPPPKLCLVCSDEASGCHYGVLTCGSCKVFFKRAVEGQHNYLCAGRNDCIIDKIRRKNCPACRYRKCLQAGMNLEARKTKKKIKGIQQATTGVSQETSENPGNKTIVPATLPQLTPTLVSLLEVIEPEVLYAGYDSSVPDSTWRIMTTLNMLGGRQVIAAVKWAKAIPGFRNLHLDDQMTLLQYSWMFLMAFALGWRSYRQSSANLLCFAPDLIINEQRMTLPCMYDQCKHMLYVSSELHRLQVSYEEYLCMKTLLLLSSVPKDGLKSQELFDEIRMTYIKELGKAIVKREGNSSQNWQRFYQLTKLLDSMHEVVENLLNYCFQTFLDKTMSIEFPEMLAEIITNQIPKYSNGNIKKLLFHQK
Assay: qHTS assay to identify small molecule antagonists of the glucocorticoid receptor (GR) signaling pathway (AID 720692; active means well fitted inhibition curve with a large enough effect in the signal ratio in the repeat runs, not every such curve was filed as active; inconclusive means weak or mixed curves, or effect the other way; inactive means no such curve, though single readings can be large or run the other way; the % refers to the signal ratio)
Conditions: GR-bla HeLa, beta-lactamase FRET ratio, dexamethasone-stimulated, 18 h; series mostly up to 58.5 µM
Summary of the method: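 Fluorescence from cleaved LiveBLAzer B/G FRET substrate reports GRE-driven beta-lactamase in HeLa cells; compounds are tested against 5 nM dexamethasone (final) over 18 h at 37 C, substrate incubation 2 h at room temperature.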
Potency means the concentration at half of the fitted maximal effect; tags describe the fitted curve by direction and shape or compound fluorescence and quenching.

**Q.** Which Potency does the source give for `O=C1CCc2cc(OCCCCc3nnnn3C3CCCCC3)ccc2N1` here?
**A.** inconclusive: 15.1 µM [fluorescent, single point]

**Q.** Which Potency does the source give for `CC(C)N(C)C` here?
**A.** inactive

**Q.** For `Cc1nccn1-c1ccc(Sc2cccc(C3(C(N)=O)CCOCC3)c2)cc1`, which Potency is on record?
**A.** active: 24.5 µM

**Q.** Which Potency does the source give for `CCOc1ccc(NC(C)=O)cc1` here?
**A.** inactive

**Q.** Which Potency does the source give for `CC(C)(C)CC(C)(C)c1ccc(OCCO)cc1` here?
**A.** inconclusive: 19 µM [activator, partial curve] and inconclusive: 1.09 µM [activator, full curve]

**Q.** With `CCCCCC[C@@H](O)C/C=C\CCCCCCCC(=O)O` as the compound, how does the Potency read?
**A.** inactive and inconclusive: 23.9 µM [inhibitor, partial curve] and inconclusive: 54.9 µM [inhibitor, single point]

System: not listed separately
Assay: qHTS assay to identify small molecule antagonists of the glucocorticoid receptor (GR) signaling pathway - cell viability counter screen (AID 720693); further: nearly all actives have a fitted effect of over 55% in size
Conditions: GR-bla HeLa viability, CellTiter-Glo luminescence, 18 h, with 5 nM dexamethasone present; series mostly up to 58.5 µM

**Q.** With `N=C(N)c1ccc(OCCCCCOc2ccc(C(=N)N)cc2)cc1` as the compound, how does the Potency read?
**A.** inconclusive: 46.8 µM [cytotoxic, single point]

**Q.** With `C=C1CC[C@H](O)CC1=C/C=C1\CCC[C@]2(C)[C@@H]([C@H](C)/C=C/[C@H](C)C(C)C)CC[C@@H]12` as the compound, how does the Potency read?
**A.** inconclusive: 54.9 µM [cytotoxic]

**Q.** Which Potency does the source give for `Cc1ccc(C(C)(C)C)cc1` here?
**A.** inconclusive: 5.53 µM [rising, full curve, poor fit]

**Q.** Which Potency does the source give for `Cc1nccn1-c1ccc(Sc2cccc(C3(C(N)=O)CCOCC3)c2)cc1` here?
**A.** inconclusive: 27.5 µM [cytotoxic, partial curve, poor fit]

**Q.** Which Potency does the source give for `CC(C)(C)CC(C)(C)c1ccc(OCCO)cc1` here?
**A.** inconclusive: 43.4 µM [cytotoxic, partial curve]

**Q.** Which Potency does the source give for `CCCCCC[C@@H](O)C/C=C\CCCCCCCC(=O)O` here?
**A.** inconclusive: 61.6 µM [cytotoxic, single point]
